Some of the results follow. At the low end of the ranking, values are background and their order means little.
Target: SIX1 homeodomain (reference allele) (UniProt Q15475)
Test: universal protein binding microarray
Details: Universal all-10-mer PBM (8x60K, AMADID 030236), 300 nM GST-tagged protein, Alexa Fluor 488 anti-GST; buffer, salt, pH and temperature not stated; high values mean tight binding; most listed sequences are background and not binding sites; double strand, one strand shown

Row | Sequence | binding signal
1 | CTTGTATA | 0.213 E-score
2 | CTCTCGGA | 0.0874 E-score
3 | CATAAGCG | -0.0467 E-score
4 | CTCCGCCA | -0.131 E-score
5 | GCACCTCC | -0.303 E-score
6 | CAACTGTG | -0.178 E-score
7 | ACGCCTCA | -0.0309 E-score
8 | ACAGCTCC | -0.079 E-score
9 | AGCCCCGG | -0.0284 E-score
10 | CTAACCGA | -0.00465 E-score
11 | ATTTGAGC | -0.0406 E-score
12 | ATACTCTA | 0.268 E-score
13 | GAGTTCGA | -0.195 E-score
14 | CTGTCACA | -0.155 E-score
15 | ATCAGCCC | 0.308 E-score
16 | ATTCATGA | 0.017 E-score
17 | AGGCTTAG | 0.00232 E-score
18 | CTCAACAA | -0.0589 E-score
19 | GGTCGGGA | 0.117 E-score
20 | ATAGCCGG | 0.225 E-score
21 | CCCGGTAC | 0.0492 E-score
22 | GTTGGGGA | 0.126 E-score

Row | Sequence | binding signal
23 | CTACCGAG | -0.061 E-score
24 | ACCCCACT | 0.13 E-score
25 | TACGTTCA | -0.0582 E-score
26 | CTGTCGAA | -0.195 E-score
27 | GTTGTTCA | -0.195 E-score
28 | AGGAGAGA | -0.046 E-score
29 | ACTGTTCT | -0.0581 E-score
30 | ATATCACG | 0.456 E-score
31 | CGCAATAA | 0.066 E-score
32 | GTATTGCA | 0.169 E-score
33 | ACCGCTTG | -0.0884 E-score
34 | AGATAAAC | 0.0448 E-score
35 | CTCCACAG | 0.0465 E-score
36 | CCTCGCGC | -0.155 E-score
37 | GAGGGGCA | -0.019 E-score
38 | ATCTCGAG | 0.215 E-score
39 | CAGCCGGC | -0.181 E-score
40 | CACTGCGA | -0.116 E-score
41 | AACGCATT | -0.124 E-score
42 | CTGAAGTA | -0.114 E-score
43 | CTCACTAA | -0.0391 E-score
44 | AGAGGGTC | -0.15 E-score

Row | Sequence | binding signal
45 | AACCCAAG | -0.00344 E-score
46 | CAAACGAC | -0.0305 E-score
47 | AGAGGTTG | -0.212 E-score
48 | CGCCACTC | -0.129 E-score
49 | GACATGAC | -0.117 E-score
50 | AACCGAGT | -0.0956 E-score
51 | AAAGAATT | -0.199 E-score
52 | GGGGCCAC | -0.0409 E-score
53 | CCATAGTA | -0.0398 E-score
54 | AGCTACTA | 0.0284 E-score
55 | ACAAGCCC | -0.19 E-score
56 | GAGACTTA | -0.0722 E-score
57 | AGGAGCGG | -0.103 E-score
58 | CTTTAGAA | -0.0545 E-score
59 | CTATGTAA | 0.00293 E-score
60 | CCACACGG | 0.00752 E-score
61 | AATCGGCC | -0.129 E-score
62 | AAGTACAC | -0.0203 E-score
63 | GAGCATGC | -0.00805 E-score
64 | TACTGGAA | -0.0176 E-score
65 | GGACCGCA | -0.0773 E-score
66 | CGAACCGC | 0.0458 E-score

Row | Sequence | binding signal
67 | GAGAAATC | -0.105 E-score
68 | ACACACGG | 0.0263 E-score
69 | AATAATTG | -0.134 E-score
70 | CTTAGTGC | -0.126 E-score
71 | CTAGTCTA | -0.142 E-score
72 | CGCCCTAC | -0.152 E-score
73 | GCACATCA | -0.0753 E-score
74 | CCGTGAAC | -0.182 E-score
75 | ATCAGTAG | 0.209 E-score
76 | CCTTGACG | -0.144 E-score
77 | AGATTGCA | -0.0909 E-score
78 | CAGGAAGA | 0.0107 E-score
79 | AGCCGAGG | -0.0191 E-score
80 | CCAGTCCA | -0.141 E-score
81 | AATACGAA | 0.0999 E-score
82 | ATACGACC | 0.309 E-score
83 | CAAACCAC | -0.0772 E-score
84 | TGTGGGAA | -0.151 E-score
85 | AAGATAGT | 0.105 E-score
86 | CGGAGTCA | 0.0749 E-score
87 | AGCATCTA | 0.0792 E-score
88 | AGGGTAGG | 0.0483 E-score

Row | Sequence | binding signal
89 | CTCATAAC | 0.0601 E-score
90 | ACATCCGG | 0.174 E-score
91 | GATTAAGC | 0.0202 E-score
92 | CCTCCACA | -0.0816 E-score
93 | ACCCCGGC | 0.109 E-score
94 | GCATATTA | 0.249 E-score
95 | AGAGCCGA | 0.0149 E-score
96 | ATGCCGAG | -0.136 E-score
97 | ACGGTTTG | -0.0969 E-score
98 | CGCCAGAC | 0.00184 E-score
99 | ACCGTACG | -0.118 E-score
100 | AACACTAG | 0.0262 E-score
101 | GCAACTCC | -0.0982 E-score
102 | CGAACCAA | -0.169 E-score
103 | CAAAGGCG | -0.0566 E-score
104 | GTGCGAGA | -0.0214 E-score
105 | AAAACGGA | -0.0442 E-score
106 | ATCTACAG | 0.152 E-score
107 | CGATTGAC | -0.278 E-score
108 | ACAAAGCT | -0.122 E-score
109 | TGGCCAAA | -0.238 E-score
110 | TACGAATA | 0.118 E-score

Source: PMC10668032
